SMILES strings stand for the structures. Out of some 48,000 compounds screened, about 550 (1.1%) were called active. Inconclusive results (about 4%) are left out. Rule as the data show it: active = potency below about 15 µM; inconclusive = mostly about 16 µM to 33 µM; inactive = weaker than that. The list shows a part of the results. A value given as a limit tells only on which side of the number the result lay.

The text below walks through data of PubChem BioAssay AID360 (National Center for Advancing Translational Sciences (NCATS), 2006).
Potency is read from the fitted curve at half-maximal effect.

The test has as its target Lysosomal acid glucosylceramidase (Homo sapiens) (UniProt P04062). Nature of the test: Glucocerebrosidase.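 Also: the screen sought inhibitors.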 As to conditions: purified enzyme, resorufin glucoside fluorescence (screen aimed at inhibitors), 20 min; series mostly up to 77 µM. The gist of the method: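 Wild-type enzyme at 0.2 nM final in 50mM citric acid/KH2PO4, 10mM sodium taurocholate, 0.01% tween-20, pH 5.9, with resorufin beta-D-glucopyranoside at 30 uM final. Compounds titrated, 20 min at RT, red fluorescence read; AC50 from titration.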
Sequence of UniProt P04062 (P04062 whole entry, looked up): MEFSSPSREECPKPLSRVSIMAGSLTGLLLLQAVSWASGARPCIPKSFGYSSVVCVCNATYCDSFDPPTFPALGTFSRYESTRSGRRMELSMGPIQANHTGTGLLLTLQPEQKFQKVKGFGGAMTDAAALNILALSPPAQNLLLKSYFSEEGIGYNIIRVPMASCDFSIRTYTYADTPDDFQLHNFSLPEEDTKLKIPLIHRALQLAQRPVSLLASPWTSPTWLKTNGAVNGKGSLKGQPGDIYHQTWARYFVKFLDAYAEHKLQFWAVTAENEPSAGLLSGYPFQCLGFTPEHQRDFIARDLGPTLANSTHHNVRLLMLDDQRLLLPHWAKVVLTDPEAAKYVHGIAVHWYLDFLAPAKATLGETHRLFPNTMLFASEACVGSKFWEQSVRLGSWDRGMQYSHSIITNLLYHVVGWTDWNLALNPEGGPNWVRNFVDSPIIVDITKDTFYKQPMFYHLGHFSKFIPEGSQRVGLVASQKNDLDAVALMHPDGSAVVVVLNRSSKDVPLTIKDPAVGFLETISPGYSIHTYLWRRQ
For `Cc1ccc2c(c1)CCCN2C(=O)C1CCCO1` (stereo not given), the Potency was inactive: > 76.9 µM.
For `COc1ccc(CCn2nnnc2C(C(C)C)N2CCC(C(N)=O)CC2)cc1OC` (stereo not given), the Potency was inactive: > 76.9 µM.
As for `COC(=O)CCN(C(=O)c1ccc2c(c1)OCO2)c1ccccn1`, the Potency was inactive: > 76.9 µM.
Take `CCC(=O)Nc1nn(C)c2nc3c(C)cccc3cc12`: the Potency was inactive: > 76.9 µM.
For the compound `Cc1cccc(OCCn2c(NC(=O)c3ccco3)nc3ccccc32)c1`, the Potency was inactive: > 76.9 µM.
Turning to `O=C(CSc1ncn(-c2ccccc2)n1)Nc1nc2ccccc2s1`, the Potency was inactive: > 76.9 µM.
The figure for `CCOC(=O)c1cnc(SCC(=O)N2CCN(c3ccccc3)CC2)nc1N` is inactive: > 76.9 µM; for `S=c1[nH]nc(-c2ccco2)n1-c1cccc2ccccc12` it is inactive: > 76.9 µM; for `CSc1[nH]c(=O)c(C(=O)O)cc1C#N` it is inactive: > 76.9 µM.
With `O=C(Nc1ccc(Cl)cn1)c1cc2ccccc2o1` the entry was “inactive”; with `COc1ccccc1-n1c(SCC(=O)N(C)C2CCS(=O)(=O)C2)nc2ccccc2c1=O` (stereo not given), inactive: > 76.9 µM.
For the compound `Cc1cc(C)c2cc(CN(CC3CCCO3)S(=O)(=O)c3ccc4c(c3)OCCO4)c(=O)[nH]c2c1` (stereo not given), the Potency is inactive: > 76.9 µM.
Take `COc1ccc(-c2nnc(SCC(=O)NCc3ccco3)o2)cc1`: the Potency is inactive: > 76.9 µM.
As to `CCOC(=O)CNc1ccc2c(c1)OCO2`, the Potency was inactive: > 76.9 µM.
With `CCN1C(=O)C(CC(=O)NC2CCCCC2)N(CC)C1=O` (stereo not given), the Potency was inactive: > 76.9 µM.
In the case of `Cn1nnnc1SCC(=O)c1ccco1`, the Potency is inactive: > 76.9 µM.
Turning to `CCn1c(=O)cc(SCC(=O)NCCCN2CCN(c3ccc(F)cc3)CC2)c2ccccc21`, the Potency was inactive: > 76.9 µM.
With `CC(=O)OC(C(=O)Nc1ccccc1)C(C)S(=O)(=O)c1ccccc1` (stereo not given) the figure was inactive: > 76.9 µM; with `COC(=O)c1cc(=O)n2c(-c3ccccc3)csc2n1`, inactive: > 76.9 µM.
For the compound `O=C(Cc1ccc2cccnc2c1)c1ccc(O)cc1O`, the Potency was inactive: > 76.9 µM.
Regarding `O=c1/c(=C/c2ccc(CNS(=O)(=O)c3ccccc3)o2)sc2n1CCN=2`, the Potency was inactive: > 76.9 µM.
`Cc1ccc(-n2c(C)cc(C)c(C#N)c2=O)cc1Cl`: the Potency was inactive: > 76.9 µM.
The figure for `O=C(NCC1CCCO1)C1CCC(=O)N1CCc1ccccc1` (stereo not given) is inactive: > 76.9 µM.
The figure for `Cc1cc(C)cc(N(CC(=O)N2CCC(C)CC2)S(C)(=O)=O)c1` is inactive: > 76.9 µM.
As to `CC(C)(C)c1cc(CN(CCO)CCO)cc(C(C)(C)C)c1O`, the Potency is inactive: > 76.9 µM.
The figure for `CCOC(=O)c1c(C)n(C)c2ccc(OC(=O)c3ccoc3)cc12` is inactive: > 76.9 µM.
As for `Cc1ccc(C(C)C)c(OCc2nnc(SCC(=O)Nc3nccs3)n2C)c1`, the Potency was inactive: > 76.9 µM.
The figure for `CC1(C)CC(=O)C=C(NC2CCS(=O)(=O)C2)C1` (stereo not given) is inactive: > 76.9 µM; for `O=C(OCn1nnc2ccccc2c1=O)C1CCN(S(=O)(=O)c2cccs2)CC1` it is inactive: > 76.9 µM.
With `Cc1ccc(C(=O)Nc2ccccc2C(=O)NCc2ccco2)cc1S(=O)(=O)N1CCCCC1` the figure was inactive: > 76.9 µM; with `COCCn1c(SCC(=O)Nc2sc(C)c(C)c2C#N)nnc1-c1ccc(OC)cc1`, inactive: > 76.9 µM.
The figure for `COc1ccc(OC)c(NC(=O)CCN2CCCCC2)c1` is inactive: > 76.9 µM; for `CCCCCOC(=O)Cc1c(O)c2ccccc2[nH]c1=O` it is inactive: > 76.9 µM.
On to `COc1ccccc1CNC(=O)CNCC1CCCO1` (stereo not given), for which the Potency was inactive: > 76.9 µM.
As for `CCOC(=O)c1ccc(NC(=O)CSc2nnc(C)n2-c2ccccc2)cc1`, the Potency is inactive: > 76.9 µM.
The figure for `Cc1nc2c3cnn(-c4ccccc4)c3ncn2n1` is inactive: > 76.9 µM; for `CCN(C(=O)CSc1nc2nc(C)cc(C)n2n1)c1cccc(C)c1` it is inactive: > 76.9 µM; for `Cn1c(=O)oc2cc(S(=O)(=O)N3CCN(c4cccc(Cl)c4)CC3)ccc21` it is inactive: > 76.9 µM.
Regarding `CCCCn1c(SCC(=O)NCc2cccs2)nc2c1c(=O)n(C)c(=O)n2C`, the Potency is inactive: > 76.9 µM.
The figure for `CCC(Oc1ccccc1)C(=O)N1CCC(C(N)=O)CC1` (stereo not given) is inactive: > 76.9 µM.
The figure for `COCCN(C(=O)c1csnn1)C(C(=O)NC1CCCCC1)c1sccc1C` (stereo not given) is inactive: > 76.9 µM; for `O=C(Cc1ccc(Cl)c(Cl)c1)OCC(=O)c1ccc[nH]1` it is inactive: > 76.9 µM.
On to `CCOc1ccc(N=C(NC#N)SC)cc1`, for which the Potency entry was “inactive”.
With `CC(CCc1ccccc1)NC(=O)C1CCN(S(=O)(=O)N2CCCCC2)CC1` (stereo not given), the Potency is inactive: > 76.9 µM.
Turning to `NC(=O)c1ccsc1NC(=O)c1nc(-c2ccccc2)n(-c2ccccc2)n1`, the Potency was inactive: > 76.9 µM.
The figure for `COC(=O)c1ccc(CS(=O)(=O)c2ccccc2C)o1` is inactive: > 76.9 µM.
With `CCOC(=O)C1CCN(C(=O)CNS(=O)(=O)c2cccs2)CC1`, the Potency was inactive: > 76.9 µM.
Take `O=C(CSc1nc(N2CCCCC2)nc(N2CCCCC2)n1)c1ccccc1`: the Potency is inactive: > 76.9 µM.
As for `CCS(=O)(=O)NCc1csc(C)n1`, the Potency is inactive: > 76.9 µM.
For the compound `c1ccc(-c2nc(CSc3nnc(-c4cccs4)o3)cs2)cc1`, the Potency is inactive: > 76.9 µM.
For `COc1cccc(C(=O)N(CN2CCCC2=O)c2cccc(Cl)c2)c1OC`, the Potency is inactive: > 76.9 µM.
With `Cc1cc(N2C(=O)CCC2=O)n(-c2ccccc2)n1` the figure was inactive: > 76.9 µM; with `Cc1ccc(-n2cc(C(C)(C)C)[nH]c2=S)cc1`, inactive: > 76.9 µM.
On to `O=C1CCC(=O)N1CCC(c1ccc(F)cc1)c1ccco1` (stereo not given), for which the Potency is inactive: > 76.9 µM.
In the case of `COc1ccc(C(=O)NC2CC3CCCC(C2)N3CC(C)C)cc1OC` (stereo not given), the Potency is inactive: > 76.9 µM.
Consider `CC1Cc2ccccc2N1S(=O)(=O)c1cccs1` (stereo not given), for which the Potency was inactive: > 76.9 µM.
As for `CC(C)C1=C2CCCCC2NC(=O)N1` (stereo not given), the Potency is inactive: > 76.9 µM.
The figure for `O=C(CSc1nc2ccccc2c(=O)n1-c1ccccc1)NCc1ccco1` is inactive: > 76.9 µM.
The figure for `CCOc1cc(C)c(Cl)cc1S(=O)(=O)N1CCCC1` is inactive: > 76.9 µM; for `O=C(O)c1cc(-c2cccnc2)nn1-c1ccccn1` it is inactive: > 76.9 µM.
